# Measured values from the RNAGym collection of RNA variant scans (doi:10.7554/elife.90254).
# Read counts are not given, so values of variants with three or more changes are uncertain.
# B1: OR4K15 (parent)
# chain: GUUAACGGUCAUAGGCCAUGGAAACUAGGAGCACCAUUUCGCUGCCAGUGAAGAAAUGAACAAAGAAAAUCUGGGCCAGGCAGGCAUCAAAAGAAAUAGUCUUGCGCUCAACCAGAAAGUCUGUAAUCAUUUUAAGGGUA
# Variants of: B1
# Test: self-cleavage, relative activity (ratio to wild type); higher = more cleavage; in vitro, sequencing; the parent is a self-cleaving ribozyme
row,Variant,self-cleavage
1,GUUAACGGUCAUAGGCCAUGGAAACUAGGAGCACCAUUUCGCUGCCAGUGAAGAAAUGAACAAAGAAGAUCUGAGCCAGGCAGGCAUCUAAAGAAAUAGUCUUGCGCUCAACCAGAAAGUCUGUAAUCAUUUUAAGGGUA [A68G G74A A89U],0.22
2,GUUAACGGUCAUAGGCCAUGGAAACUAGGAGCACCAUUUCGCUGCCAGUGAAGAAAUGAACAAAGAAGAUCUGGGCCAGGCAGGCAUCAAAAGGAAUAGUCUUGCGCUCAACCAGAAAGUCUGUAAACAUCUUAAGGGUA [A68G A94G U127A U131C],1.09
3,GUUAACGGUCAUAGGCCAUGGAAACUAGGAGCACCAUUUCGCUGCCAGUGAAGAAAUGAACAAAGAAGAUCUGGGCCAGGCAGGCAUCAAAAGAAAUAGUCUUGCGCUCAACCAGAAAGUCUGUAAUCAUUUAAACGGUA [A68G U133A G136C],0.98
4,GUUAACGGUCAUAGGCCAUGGAAACUAGGAGCACCAUUUCGCUGCCAGUGAAGAAAUGAACAAAGAAGAUCUGGGCCAGGCAGGCAUCAAAAGAAAUAGUCUUGCGCUCAUCCAGAGAGUCUGUAAUCAUUUUAAGGGUA [A68G A111U A117G],0.2
5,GUUAACGGUCAUAGGCCAUGGAAACUAGGAGCACCAUUUCGCUGCCAGUGAAGAAAUGAACAAAGAAGAUCUGGGCCAGGCAGGCAUCAAAAGAAACAGUCUUGCGCUCAACCAGAAAGUCUGUAAUCGUUUUAAGGGUA [A68G U97C A129G],0.7
6,GUUAACGGUCAUAGGCCAUGGAAACUAGGAGCACCAUUUCGCUGCCAGUGAAGAAAUGAACAAAGAAGAUCUGGGCCAGGCAGGCAUCAAAAGAAAUAGCCUUGCGCUCAACCAGAAAGUCUGUAAUCAUUUUAGGGGUA [A68G U100C A135G],0.69
7,GUUAACGGUCAUAGGCCAUGGAAACUAGGAGCACCAUUUCGCUGCCAGUGAAGAAAUGAACAAAGAAGAUCUGGGCCAGGCAGGCAACAAAAGAAAUAGUCUUGCGCUCAACCAGAAAGUCUGUAACCAUUUUAAGGGUA [A68G U87A U127C],0.74
8,GUUAACGGUCAUAGGCCAUGGAAACUAGGAGCACCAUUUCGCUGCCAGUGAAGAAAUGAACAAAGAAGACCUGGGCCAGGCAGGCAUCAAAAGAAAUAGUCUCGCGCUCAACCAGAAAGUCUGUAAUCAUUUUAAGGGUA [A68G U70C U103C],0.42
9,GUUAACGGUCAUAGGCCAUGGAAACUAGGAGCACCAUUUCGCUGCCAGUGAAGAAAUGAACAAAGAAGAACUGGGCCAGGCAGGCAUCAAAAGAAAUAGUCUUGCGCUCAACCAGAGAGUCUGUAAUCAUUUUAAGGGUA [A68G U70A A117G],1.37
10,GUUAACGGUCAUAGGCCAUGGAAACUAGGAGCACCAUUUCGCUGCCAGUGAAGAAAUGAACAAAGAAUAUCUGGGCCUGGCAGGCAUCAAGAGAAAUAGUCUUGCGCUCAACCAGAAAGUCUGUAAUCAUUUUAAGGGUA [A68U A78U A91G],0.05
11,GUUAACGGUCAUAGGCCAUGGAAACUAGGAGCACCAUUUCGCUGCCAGUGAAGAAAUGAACAAAGAAUAUCUGGGCCAGGCGGGCAUCAAAAGAGAUAGUCUUGCGCUCAACCAGAAAGUCUGUAAUCAUUUUAAGGGUA [A68U A82G A95G],0.7
12,GUUAACGGUCAUAGGCCAUGGAAACUAGGAGCACCAUUUCGCUGCCAGUGAAGAAAUGAACAAAGAAGAUCUGGGCCAGGCAGGCAUCAAAAGAAAUAGUCUUGCGCUCAACCGGAAAGUCUGUAAUCAUUCUAAGGGUA [A68G A114G U132C],0.41
13,GUUAACGGUCAUAGGCCAUGGAAACUAGGAGCACCAUUUCGCUGCCAGUGAAGAAAUGAACAAAGAAGAUCUGGGCCAGGCAGGCAUCAAAAGAGAUAGUCUUACGCUCAACCAGAAAGUCUGUAAUCAUUCUAAGGGUA [A68G A95G G104A U132C],0.04
14,GUUAACGGUCAUAGGCCAUGGAAACUAGGAGCACCAUUUCGCUGCCAGUGAAGAAAUGAACAAAGAAUCUCUGGGCCAGGCAGGCAUCAAAAGAAAUAGUCUUGCGCUCAACCAGAAAAUCUGUAGUCAUUUUAGGGGUA [A68U A69C G119A A126G A135G],0.57
15,GUUAACGGUCAUAGGCCAUGGAAACUAGGAGCACCAUUUCGCUGCCAGUGAAGAAAUGAACAAAGAAGAUCUGGGCCAGGCAGGCAUCAAAAGAAAUAGUCUUGCGCUCAACCAGAAAGUCUGAAAUCGUUUUAAGGGUA [A68G U124A A129G],0.78
16,GUUAACGGUCAUAGGCCAUGGAAACUAGGAGCACCAUUUCGCUGCCAGUGAAGAAAUGAACAAAGAAGAUCGGGGCCAGGCAGGCUUCAAAAGAAAUAGUCUUGCGCUCAACCAGAAAGUCUGUAAUCAUUUUAAGGGUA [A68G U72G A86U],0.34
17,GUUAACGGUCAUAGGCCAUGGAAACUAGGAGCACCAUUUCGCUGCCAGUGAAGAAAUGAACAAAGAAGAUCUGGGCCAGGCAGGCAUCAAAAGAAAUAGUCUUGCGCUCAACCGGAAAGUCUGUAAUCGUUUUAAGGGUA [A68G A114G A129G],0.1
18,GUUAACGGUCAUAGGCCAUGGAAACUAGGAGCACCAUUUCGCUGCCAGUGAAGAAAUGAACAAAGAAGAUCUGGGCCAGGCAGGCAUCAAAAGAAAUAGUCUUGCGCUCAGCCAGAAAGUCUGUAAUAACUUUAAGGGUA [A68G A111G C128A U130C],0.01
19,GUUAACGGUCAUAGGCCAUGGAAACUAGGAGCACCAUUUCGCUGCCAGUGAAGAAAUGAACAAAGAAGAUCUGGGCCAGGCAGGCACCAAAAGAAAUAGUCUUGCGCUCAACCAGAAAGUCAGUAAUCAUUUUAAGGGUA [A68G U87C U122A],0.91
20,GUUAACGGUCAUAGGCCAUGGAAACUAGGAGCACCAUUUCGCUGCCAGUGAAGAAAUGAACAAAGAAUAUCUGGGCCAGGCAGGCAUCAAAAGCAAUAGUCUUGCGCUCAACCAGAAAGUCUGUAAUCAUUGUAAGGGUA [A68U A94C U132G],1.16
21,GUUAACGGUCAUAGGCCAUGGAAACUAGGAGCACCAUUUCGCUGCCAGUGAAGAAAUGAACAAAGAAGAUCUGGGCCAGGCAGGCAUCAAAAGCAAUAGUCUUGCGCUCAACCCGAAAGUCUGUAAUCAUUUUAAGGGUA [A68G A94C A114C],0

row,Variant,self-cleavage
1,GUUAACGGUCAUAGGCCAUGGAAACUAGGAGCACCAUUUCGCUGCCAGUGAAGAAAUGAACAAAGAAGAUCUAGGCCAGGCAGGCAUCAAAAGAAAUAGUCUUGCGCUCAACCAGAAGGUCUGUAAUCAUUUUAAGGGUA [A68G G73A A118G],0.1
2,GUUAACGGUCAUAGGCCAUGGAAACUAGGAGCACCAUUUCGCUGCCAGUGAAGAAAUGAACAAAGAAGAUCUGGGCCAGGCAGGCAUCAAAAGAAAUAGUCUCGCGCUCAACCAGAAAGUCUGUAAUCAUUUUAAGGAUA [A68G U103C G138A],0.88
3,GUUAACGGUCAUAGGCCAUGGAAACUAGGAGCACCAUUUCGCUGCCAGUGAAGAAAUGAACAAAGAAGAUCUGGGCCAGGCAGGCAUCAAAAGAAAUAGUCCUGAGCUCAACCAGAAAGUCUGUAAUCAUUUUAAGGGUA [A68G U102C C105A],0.03
4,GUUAACGGUCAUAGGCCAUGGAAACUAGGAGCACCAUUUCGCUGCCAGUGAAGAAAUGAACAAAGAAGAUCUGGGCCAGGCAGGCACCAAAAGAAAUAGUCUCGCGCUCAACCAGAAAGUCUGUAAUCAUUUUAAGGGUA [A68G U87C U103C],0.1
5,GUUAACGGUCAUAGGCCAUGGAAACUAGGAGCACCAUUUCGCUGCCAGUGAAGAAAUGAACAAAGAAGAUCUGGGCCAGGCAGGCAUCAAAAGAAAUAGUCUUGCGCUCAACCAGAGAGUCCGUAAUCAUUUUAAGGGUA [A68G A117G U122C],2.09
6,GUUAACGGUCAUAGGCCAUGGAAACUAGGAGCACCAUUUCGCUGCCAGUGAAGAAAUGAACAAAGAAGAUCUGGGCCAGGCAGGCAUCAAAAGAAAUAGUCUUGCGCUCAACCGGAAAGUCUGUAAUCAUCUUAAGGGUA [A68G A114G U131C],0.17
7,GUUAACGGUCAUAGGCCAUGGAAACUAGGAGCACCAUUUCGCUGCCAGUGAAGAAAUGAACAAAGAAGAUCUGGGCCAGGCAGGCAUCAAAAGAAAUAGCCUUGCGCUCAACCAGAAAGUCUGUGAUCAUUUUAAGGGUA [A68G U100C A125G],1.59
8,GUUAACGGUCAUAGGCCAUGGAAACUAGGAGCACCAUUUCGCUGCCAGUGAAGAAAUGAACAAAGAAGAUCUGGGCCAGGCAGGCAUCAAAAGAAAUAGUCUUGCGCUCAACCAGAAAGUCUGUAAUCACUUUAGGGGUA [A68G U130C A135G],0.92
9,GUUAACGGUCAUAGGCCAUGGAAACUAGGAGCACCAUUUCGCUGCCAGUGAAGAAAUGAACAAAGAAGAUCUGGGCCAGGCAGGCACCAAAAGAAAUAGCCUUGCGCCCAACCAGAAAGUCUGUAAUCAUUUUAAGGGUA [A68G U87C U100C U108C],0
10,GUUAACGGUCAUAGGCCAUGGAAACUAGGAGCACCAUUUCGCUGCCAGUGAAGAAAUGAACAAAGAAGAUCUGGGCCAGGCAGGCAUCAAAAGAAAUAGUCUUGCGCUCAGCCAGAAAGUCUGUAAUCAUUCUAAGGGUA [A68G A111G U132C],0.01
11,GUUAACGGUCAUAGGCCAUGGAAACUAGGAGCACCAUUUCGCUGCCAGUGAAGAAAUGAACAAAGAAUAUCUGGGCCAGGCGGGCAUCAAAGGAAAUAGUCUUGCGCUCAACCAGAAAGUCUGUAAUCAUUUUAAGGGUA [A68U A82G A92G],0.19
12,GUUAACGGUCAUAGGCCAUGGAAACUAGGAGCACCAUUUCGCUGCCAGUGAAGAAAUGAACAAAGAAUAUCUGGGCCAGGCAGGCAUCGAAAGAAAUAGUCUUGCGCUCAACCGGAAAGUCUGUAAUCAUUUUAUGGGUA [A68U A89G A114G A135U],0.63
13,GUUAACGGUCAUAGGCCAUGGAAACUAGGAGCACCAUUUCGCUGCCAGUGAAGAAAUGAACAAAGAAUAUCUGGGCCAGGCAGGCAUCGAAAGAAAUAGUCUUGCGCUCAACCAGAGAGUCUGUAAUCAUUUUAAGGGUA [A68U A89G A117G],2.31
14,GUUAACGGUCAUAGGCCAUGGAAACUAGGAGCACCAUUUCGCUGCCAGUGAAGAAAUGAACAAAGAAGAUCCGGGCCAAGCAGGCAUCAAAAGAAAUAGUCUUGCGCUCAACCAGAAAGUCUGUAAUCAUUUUAAGGGUA [A68G U72C G79A],0.25
15,GUUAACGGUCAUAGGCCAUGGAAACUAGGAGCACCAUUUCGCUGCCAGUGAAGAAAUGAACAAAGAAGAUCUGGGCCAGGCAGGCAUCAAAAGGAAUAGUCUUGCGCUCAACCAGAAAGACUGUAAUCAUUUUAAGGGUA [A68G A94G U120A],1.65
16,GUUAACGGUCAUAGGCCAUGGAAACUAGGAGCACCAUUUCGCUGCCAGUGAAGAAAUGAACAAAGAAGAUCUGGGCCAGGCAGGCAUCAAAAGAAAUAGUCUUGUGCUCAACCAGAAAGUCUGUUAUCAUUUUAAGGGUA [A68G C105U A125U],0.13
17,GUUAACGGUCAUAGGCCAUGGAAACUAGGAGCACCAUUUCGCUGCCAGUGAAGAAAUGAACAAAGAAGACCAGGGCCUGGCUGGCAUCAAAGGAAGUAGUCUUGCGCUCAACCAGAAGGUCUGUAAUCAUUUUAAGGGUA [A68G U70C U72A A78U A82U A92G A96G A118G],0.02
18,GUUAACGGUCAUAGGCCAUGGAAACUAGGAGCACCAUUUCGCUGCCAGUGAAGAAAUGAACAAAGAAGAUCUGGGCCAGGCAGGCAACAAAAGAAAUAGUCUUGCGCUCAACCAGAAAGUCCGUAAUCAUUUUAAGGGUA [A68G U87A U122C],0.32
19,GUUAACGGUCAUAGGCCAUGGAAACUAGGAGCACCAUUUCGCUGCCAGUGAAGAAAUGAACAAAGAAUAUCUGGGCCAGGCAGGCGUCAAAAGAAGUAGUCUUGCGCUCAACCAGAAAGUCUGUAAUCAUUUUAAGGGUA [A68U A86G A96G],2.59
20,GUUAACGGUCAUAGGCCAUGGAAACUAGGAGCACCAUUUCGCUGCCAGUGAAGAAAUGAACAAAGAAGAUCUGGGCCAGGCAGGCAUCAAAAGAGAUAGUCUCGCGCUCAACCAGAAAGUCUGUAAUCAUUUUAAGGGUA [A68G A95G U103C],0.85
